According to the RNAGym collection of RNA variant scans (doi:10.1093/nar/gkz1192):
Read counts are not given, so values of variants with three or more changes are uncertain.

B1: CPEB3 Ribozyme (parent)
chain: UAACAGGGGGCCACAGCAGAAGCGUUCACGUCGCAGCCCCUGUCAGAUUCUGGUGAAUCUGCGAAUUCUGCUGUAUAUCUC

Variants of: B1
Assay: self-cleavage, relative activity (ratio to wild type); higher = more cleavage; in vitro, sequencing
Method in brief: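 Barcoded CPEB3 ribozyme mutants, produced by rounds of error-prone PCR, self-cleaved while being transcribed with T7 RNA polymerase for 5 hours at 37°C and during a subsequent 15 min DNase I step before EDTA was added. Sequencing of template-switched cDNA on Illumina gave cleaved and total reads, and DNA sequencing assigned barcodes to variants. Each variant's relative activity is its cleaved/total read fraction divided by the unmutated ribozyme's fraction, averaged across three batches. A variant needed a minimum of 5 reads.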
UAACAUGGGGCCACAGCAGAGGCGUUCACGUCGCAGCCCCUGUCAGAUCCUGGUGAAUCUGCGAAUUCUGCUGUAUAUCUC [G6U A21G U49C] gave a self-cleavage of 0.08. In the case of UAACAUGUGGCCACAGCAGAAGCGUUCACGUCGCAGCCCCUGUCUGAUUCUGGUGUAUCUGCGAAUUCUGCUGUAUAUCUC [G6U G8U A45U A56U], the self-cleavage is reported as 0.13. With UAACAGAGGGCCACAGCGGAAGCGUUCACGUCGCAGCCCCUGUCAGAUUCUGGUGAAUCAGCGAAUUCUGCGGUAUAUCUC [G7A A18G U60A U72G] the self-cleavage was 0.14. For UAACAUGGGGCCACAGCAGAAGCGUUCACGCCGCAGCCCCUGUCAGGUUCUGGUGAAUCCGCGAAUUCUGCAGUAUAUCUC [G6U U31C A47G U60C U72A], the self-cleavage was 0.14. UAACAUGAGGCCACAGCAGAGGCGUUCACGUCGCAGCCCCUGUCAGAUUCUGGUGAAUCUGCGAAUCCUGCUGUAUAUCCC [G6U G8A A21G U67C U80C] gave a self-cleavage of 0.05. In the case of UAACAGAGGGCCACAGCAGAAGCGUUCUCGUCGCAGCCCCUGUCAGAUUCUGGUGUAUCUGCGAAUUCUGCUGUAUAUCUC [G7A A28U A56U], the self-cleavage is reported as 0.06. UAACAGAGGGCCACAGCAGAAGCGUUCGCGUCGCAGCCCCCGUCAGAUUCUGGUGAAUCUGCGAAUUCUGCUGUAUAUCUC [G7A A28G U41C] showed a self-cleavage of 0.08. In the case of UAACAUGGGGCCACAGCAGAAGCGUUCACGUCGCAGCCCCUGUCAGAUUCCGGUGAAUCUGCGAAUUCUGCCGUAUAUCUC [G6U U51C U72C], the self-cleavage is reported as 0.2. For UAACAGAGGGCCACGGCAGAAGCGUUCACGUCGCAGCCCCUGUCAGAUUCUGGUGAAUCUGCGAUUUCUGCUGUAUAUCUC [G7A A15G A65U], the self-cleavage was 0.22. For UAACAGAGGGCCACAGCGGAAGUGUUCACGUCGCAGCCCCUGACAGAUUCUGGUGAGUCUGCGAAUUCUGCUGUAUAUCUC [G7A A18G C23U U43A A57G], the self-cleavage was 0.05. Work on UAACAGAGGGCCACAGCUGAAGCGUUCACGUCGCAGCCCCUGUCAGGUUCUGGUGAAUCUGCGAAUUCUGCUGUAUAUCUC [G7A A18U A47G] yielded a self-cleavage of 0.06. Work on UAACAGAGGGCCACAGCUGAAGCGUUCGCGUCGCUGCCCCUGUCAGAUUUUGGUGAAUCUGCGAAUUCUGCGGUGUAUCUC [G7A A18U A28G A35U C50U U72G A75G] yielded a self-cleavage of 0.04. Work on UAACAGAGGGCCUCAGCUGAAGCGCUCUCGUCGCAGCCCCCGUCAGAUUCUGGUGAAUCUGCGAAUUCUGCUGUAUGUCUC [G7A A13U A18U U25C A28U U41C A77G] yielded a self-cleavage of 0.02. Variant UAACAGAGGGCCACAGCAGGAGCGUUCACGUCGCUGCCCCUGUCAGAUUCUGGUGAAUCUGCGAAUUCUGCUGUAUAUCUC [G7A A20G A35U] has a self-cleavage of 0.09. With UAACAUGGGGCCACAGCAGAAGCGUUCACGUCGCUGCCCCUGUCAGAUUCUGGUGAAUCCGCGGAUUCUGCUGUAUAUCUC [G6U A35U U60C A64G] the self-cleavage was 0.06. Variant UAACAUGGGGCCACAGCAGGAGCGUUCACGUCGCAGCCCCUGUCAGAUUCUGGUGGAUCUGCGAAUUCUGCUGUAUAUCUC [G6U A20G A56G] has a self-cleavage of 0.12. UAACAGAGGGCCACAGCGGAAGCGUUCACGUCGCAGCCCCUGUCAGAUUCUGGUGAAUCUGCGGGUUCUGCUGUAUAUCUC [G7A A18G A64G A65G] showed a self-cleavage of 0.14. Variant UAACAUGGGGCCACUGCAGAAGCGUUCACGUCGCAGCCCCUGUCAGAUUCUGGUGAAUCUGCGAAUUCUGCCGUAUAUCUC [G6U A15U U72C] has a self-cleavage of 0.1. With UAACAUGGGGCCACAGCAGAAGCGUUCACGUCGCAGCCCCUGUCAGAUUCUGGUGAGUCUGCGAAUUCUGCUGUAUAUAUC [G6U A57G C79A] the self-cleavage was 0.24. UAACAUGGGGCCACAGCAGAAGAGUUCACGUCGCAGCCCCUGUCCGAUUCUGGUGAAUCUGCGAAUUCUGCUGUAUAUCUC [G6U C23A A45C] showed a self-cleavage of 0.21. For UAACAGAGGGCCACAGCAGAGGCGUUCACGUCGCAGCCCCCGUCAGAUUCCGGUGGAUCUGCGAAUUCUGCUGUAUAUCCC [G7A A21G U41C U51C A56G U80C], the self-cleavage was 0.15. For UAACAGAGGGCCACAGCAGAAGCGUUCGCGGCGCAGCCCCUGUCAGAUCCUGGUGAAUCUGCGUAUUCUGCUGUACAUCUC [G7A A28G U31G U49C A64U U76C], the self-cleavage was 0.12. Work on UAACAGAGGGCCUCGGCAGAAGCGCUCACGUCGCAGCCCCUGUCAGAUUCUGGUGAGUCUGCGAAUCCUGCUGUAUACCUC [G7A A13U A15G U25C A57G U67C U78C] yielded a self-cleavage of 0.08. UAACAGAGGGCCACGGCAGAAGCGCUCACGUCGCAGCCCCUGUCAGAUUCUGGUGUAUCUGCGAAUUCUCCGGUAUAUCUC [G7A A15G U25C A56U G70C U72G] showed a self-cleavage of 0.19. With UAACAUGGGGCCACAGCAGAAGCGCUCACGUCGCAUCCCCUGUCAGAUUCUGGUGAAUCUGCGAAUUCUGCUGUAUAUCUC [G6U U25C G36U] the self-cleavage was 0.26. For UAACAUGGGGCCACAGCAUAAGUGUUCUCGUCGCAGCCCCUGUCAGAUUCUGGUGAAUCUGCGGAUUCUGCUGAAUAUCUC [G6U G19U C23U A28U A64G U74A], the self-cleavage was 0.22. In the case of UAACAGAGGGCCACUGCAGAGGCGUUCACGUCGCAGCCCUUGUCAGAUUCUGGUGAAUCUGCGAAUUCUGCUGUAUAUCUC [G7A A15U A21G C40U], the self-cleavage is reported as 0.31. Work on UAACAUGGGGCCACAGCAGAAGCGAUCACGUCGCAACCCCUGUCAGAUUCUGGUGAACCUGCGAAUUCUGCUGUAUAUCUC [G6U U25A G36A U58C] yielded a self-cleavage of 0.11. In the case of UAACAGAGGGCCACGGCAGAAGGGUUCACGUCGCAGCCCCUGUCAGAUUCUGGUGAAUCUGCGGAUUCUGCUGUAUAUCUC [G7A A15G C23G A64G], the self-cleavage is reported as 0.27. With UAACAUGGGGCCACAGCAGAGGCGUCCACGUCGCAGCCCCUGUCAGAUUCUGGUGAAUCUGCGAAGUCUGCUGUAUACCUC [G6U A21G U26C U66G U78C] the self-cleavage was 0.21. Variant UAACAUGGGGCCACAGCAGAAGCGUUCACGACGCAGCCCCUGUCAGAUUCAGGUGAAUCUGCGAAUUCUGCUGUAUAUCUC [G6U U31A U51A] has a self-cleavage of 0.21. With UAACAUGGGGCCACAGCAGAAGCGUUCACGUCGCAGCCCCCCUCAGAUUCCGGUGAAUCUGCGGAUUCUGCCGUAUGUCUC [G6U U41C G42C U51C A64G U72C A77G] the self-cleavage was 0.05. In the case of UAACAUGGGGCCACAGCAGAAGCGUUCACGUCGCAGCCACUGUCAGAUUCUGGUGAAUCUGCGAAUUCUGCUGUUUAUCUC [G6U C39A A75U], the self-cleavage is reported as 0.39. In the case of UAACAUGGGGCCACAGCGGAAGCGUUCACGUAGCAGCCCCUGUCGGAUUCUGGUGAAUAUGCGAAUUCUGCUGUAUACCUU [G6U A18G C32A A45G C59A U78C C81U], the self-cleavage is reported as 0.03.
